Data from the antibiotic and cytotoxicity screens of Wong et al. (2023).
The list shows a part of the results.

Legend:
HSkMC = human skeletal muscle cells; assay: cytotoxicity call (relative viability < 0.9); conditions: 10 µM
HepG2 = assay: cytotoxicity call (relative viability < 0.9); conditions: 10 µM
S. aureus RN4220 = assay: growth inhibition call (relative growth <= 0.2); conditions: 50 µM

Structure (SMILES)	cytotoxicity call (HSkMC)	cytotoxicity call (HepG2)	growth inhibition call (S. aureus RN4220)
C[C@H](CO)N1C[C@H](C)[C@@H](CN(C)Cc2ccc3c(c2)OCO3)Oc2ccc(NC(=O)C3CC3)cc2CC1=O	inactive	inactive	inactive
O=C1C[C@]2(c3ccc([N+](=O)[O-])cc3)C(=O)N(C3CC3)c3cc(CO)ccc3[C@H]2N1CC12CC3CC(CC(C3)C1)C2	inactive	inactive	inactive
C[C@@H]1CCCCO[C@@H](CN(C)C(=O)CCC(F)(F)F)[C@@H](C)CN([C@@H](C)CO)C(=O)c2cc(NC(=O)Cc3ccccc3)ccc2O1	inactive	inactive	inactive
COc1ccc(S(=O)(=O)Nc2ccc3c(c2)[C@H]2C[C@H](CC(=O)NCC4CC4)O[C@H](CO)[C@H]2O3)cc1	inactive	inactive	inactive
COc1cccc(NC(=O)N2C[C@H](O)COC[C@@H]3O[C@@H](CC(=O)NC4Cc5ccccc5C4)CC[C@H]32)c1	inactive	inactive	inactive
CC(C)(C)c1cc2[nH]c(N)nc(=N)n2n1	inactive	inactive	inactive
COc1ccc(S(=O)(=O)Nc2ccc3c(c2)C(=O)N([C@H](C)CO)C[C@H](C)[C@H](CN(C)Cc2ccc(C(=O)O)cc2)OCCCC[C@H](C)O3)cc1	inactive	inactive	inactive
C[C@@H]1CN([C@H](C)CO)C(=O)Cc2cc(NC(=O)c3ccncc3)ccc2O[C@@H]1CN(C)S(=O)(=O)c1cccs1	inactive	inactive	inactive
COc1ccc(S(=O)(=O)N(C)C[C@@H]2OCCCC[C@@H](C)Oc3ccc(NC(=O)Nc4ccccc4)cc3C(=O)N([C@@H](C)CO)C[C@H]2C)cc1	inactive	inactive	inactive
C[C@@H]1CN([C@@H](C)CO)C(=O)c2cc(NC(=O)c3ccncc3)ccc2O[C@@H](C)CCCCO[C@H]1CN(C)C(=O)Nc1cccc2ccccc12	inactive	inactive	inactive
Cc1ccc(S(=O)(=O)Nc2ccc3c(c2)C(=O)N([C@H](C)CO)C[C@@H](C)[C@@H](CN(C)C(=O)c2ccccc2)OCCCC[C@H](C)O3)cc1	inactive	inactive	inactive
C[C@H]1CN([C@@H](C)CO)C(=O)c2cc(NS(=O)(=O)c3cccs3)ccc2O[C@@H]1CN(C)C(=O)Nc1cccc2ccccc12	inactive	inactive	inactive
COc1ccc(NC(=O)Nc2cccc3c2O[C@H](CN(C)S(C)(=O)=O)[C@@H](C)CN([C@@H](C)CO)C3=O)cc1	inactive	inactive	inactive
COc1ccc(CNC(=O)C[C@@H]2CC[C@H]3[C@@H](COc4ccc(NC(=O)C5CC5)cc4C(=O)N3C)O2)cc1	inactive	inactive	inactive
CCC(C)(C)C(=O)C(=O)N1CCCC[C@H]1C(=O)O[C@@H](CCc1ccc(OC)c(OC)c1)c1cccc(OCC(=O)NCCc2ccc(O)cc2)c1	inactive	inactive	inactive
C[C@H](CO)N1C[C@H](C)[C@H](CN(C)C(=O)c2ccncc2)Oc2ncc(C#CC3CCCCC3)cc2C1=O	inactive	inactive	inactive
COc1cccc(NC(=O)N(C)C[C@@H]2OCc3ccccc3-c3c(n(C)c4ccccc34)C(=O)N([C@@H](C)CO)C[C@H]2C)c1	inactive	inactive	inactive
C[C@@H]1CN([C@H](C)CO)C(=O)c2cccc(NC(=O)C3CCOCC3)c2O[C@@H]1CN(C)Cc1ccc(Oc2ccccc2)cc1	inactive	inactive	inactive
COc1ccc(CN(C)C[C@@H]2OCCCC[C@@H](C)Oc3ccc(NS(=O)(=O)c4ccccc4)cc3C(=O)N([C@H](C)CO)C[C@@H]2C)cc1	inactive	inactive	inactive

Structure (SMILES)	cytotoxicity call (HSkMC)	cytotoxicity call (HepG2)	growth inhibition call (S. aureus RN4220)
C[C@@H]1CCCCO[C@H](CN(C)C(=O)Nc2ccc(C(F)(F)F)cc2)[C@@H](C)CN([C@@H](C)CO)C(=O)c2cc(NC(=O)C3CCCCC3)ccc2O1	inactive	inactive	inactive
O=C(Nc1nc(OCCN2CCCC2=O)cnc1-c1cc(Cl)cc(Cl)c1)c1cc2ccccc2s1	inactive	inactive	inactive
Cc1noc(C)c1S(=O)(=O)Nc1ccc2c(c1)C(=O)N([C@H](C)CO)C[C@H](C)[C@H](CN(C)S(=O)(=O)c1cccs1)O2	inactive	inactive	inactive
COCC#Cc1ccc([C@@H]2[C@@H](CO)N3C(=O)CN(C(=O)CN4CCOCC4)C[C@@H]23)cc1	inactive	inactive	inactive
COC(=O)c1cc(OC)c(OC)c(OC)c1	inactive	inactive	inactive
C[C@H]1CN([C@@H](C)CO)C(=O)c2cc(NC(=O)Cn3cnnn3)ccc2O[C@@H]1CN(C)C(=O)Nc1ccc2c(c1)OCO2	inactive	inactive	inactive
C[C@@H]1CN([C@@H](C)CO)C(=O)c2cccc(NS(=O)(=O)c3ccc(Cl)cc3)c2O[C@@H]1CN(C)S(C)(=O)=O	inactive	inactive	inactive
C[C@H]1CN([C@@H](C)CO)C(=O)Cc2cc(NC(=O)CCCCCC(=O)Nc3ccccc3N)ccc2O[C@@H]1CN(C)S(C)(=O)=O	inactive	inactive	inactive
CC(C)NC(=O)N1Cc2cc(C(=O)NC3CCCCC3)nc(-c3cccc(-c4cccnc4)c3)c2[C@H]1CCO	active	inactive	inactive
COc1ccc(NC(=O)N(C)C[C@H]2Oc3ccc(NC(=O)Cn4cnnn4)cc3C(=O)N([C@H](C)CO)C[C@@H]2C)cc1	inactive	inactive	inactive
COc1ccc(NC(=O)N(C)C[C@H]2Oc3c(NC(=O)c4cnccn4)cccc3C(=O)N([C@@H](C)CO)C[C@H]2C)cc1	inactive	inactive	inactive
C[C@H]1CCCCO[C@H](CN(C)C(=O)Nc2ccc3c(c2)OCO3)[C@@H](C)CN([C@@H](C)CO)C(=O)c2cc(NC(=O)Nc3ccc(C(F)(F)F)cc3)ccc2O1	inactive	inactive	inactive
C[C@H](CO)N1C[C@H](C)[C@H](CN(C)S(=O)(=O)c2ccc(Cl)cc2)Oc2ccc(N(C)C)cc2C1=O	inactive	inactive	inactive
C[C@@H]1CN([C@@H](C)CO)C(=O)c2cc(NS(C)(=O)=O)ccc2O[C@H]1CN(C)Cc1ccc2c(c1)OCO2	inactive	inactive	inactive
C[C@H](NC(=O)C[C@H]1CC[C@H](NC(=O)CN2CCOCC2)[C@@H](CO)O1)c1ccccc1	inactive	inactive	inactive
CNC(=O)C[C@H]1CC[C@H]2[C@@H](COC[C@@H](O)CN2C(=O)c2ccccn2)O1	inactive	inactive	inactive
CC(C)NC(=O)N[C@H]1CC[C@H](CCN)O[C@@H]1CO	inactive	inactive	inactive
CN(C)CCCNC(=O)C1CCNCC1	inactive	inactive	inactive
COc1ccc(S(=O)(=O)N(C)C[C@H]2Oc3c(NC(=O)c4cc(C)nn4C)cccc3C(=O)N([C@H](C)CO)C[C@H]2C)cc1	inactive	inactive	inactive

Structure (SMILES)	cytotoxicity call (HSkMC)	cytotoxicity call (HepG2)	growth inhibition call (S. aureus RN4220)
C[C@@H]1CCCCO[C@@H](CN(C)CC2CCCCC2)[C@@H](C)CN([C@H](C)CO)C(=O)c2cc(NS(=O)(=O)c3cccs3)ccc2O1	inactive	inactive	inactive
Cn1cnc(CCNC(=O)C[C@H]2CC[C@@H]3[C@H](COC[C@H](O)CN3C(=O)C3CC3)O2)c1	inactive	inactive	inactive
O=C(C[C@H]1C[C@@H]2c3cc(NC(=O)Nc4ccc(C(F)(F)F)cc4)ccc3O[C@@H]2[C@@H](CO)O1)NCc1cc(F)ccc1F	active	inactive	inactive
CCNC(=O)c1coc(C)n1	inactive	inactive	inactive
CN(C)C1C(O)=C(C(N)=O)C(=O)C2(O)C(O)=C3C(=O)c4c(O)ccc(Cl)c4C(C)(O)C3CC12.Cl (stereo not drawn)	inactive	inactive	inactive
C[C@@H]1CN([C@H](C)CO)C(=O)Cc2cc(NC(=O)Cn3cnnn3)ccc2O[C@@H]1CN(C)C(=O)Nc1ccc2c(c1)OCO2	inactive	inactive	inactive
C[C@H](CO)N1C[C@H](C)[C@H](CN(C)C(=O)c2cnccn2)Oc2ncc(-c3cccc(C#N)c3)cc2C1=O	inactive	inactive	inactive
C[C@@H]1CN([C@@H](C)CO)C(=O)Cc2cc(NC(=O)CCN3CCOCC3)ccc2O[C@H]1CN(C)CC1CCCCC1	inactive	inactive	inactive
COc1ccc(NC(=O)N(C)C[C@H]2Oc3ccc(NS(C)(=O)=O)cc3CC(=O)N([C@H](C)CO)C[C@H]2C)cc1	inactive	inactive	inactive
CN(C(=O)c1ccc(Cl)c(N2C(=O)CCS2(=O)=O)c1)[C@H]1CCS(=O)(=O)C1	inactive	inactive	inactive
C[C@@H]1CN([C@@H](C)CO)C(=O)c2cccc(NS(=O)(=O)c3cccs3)c2O[C@@H]1CN(C)S(=O)(=O)c1cccs1	inactive	inactive	inactive
Cc1cccnc1[C@H](c1ccc(F)cc1)N(C)C(=O)C1CCN(CCn2cnc3c2c(=O)n(C)c(=O)n3C)CC1	inactive	inactive	inactive
Cc1ccc(C(C)C)cc1O	inactive	inactive	inactive
CSC[C@H]1O[C@H](n2ccc3c(N)ncnc32)[C@@H](O)[C@H]1O	inactive	inactive	inactive
CO[C@H]1CN(C)C(=O)c2cc(NC(=O)Nc3ccccc3)ccc2OC[C@H](C)N(C(=O)CN(C)C)C[C@@H]1C	inactive	inactive	inactive
COCC(=O)Nc1ccc2c(c1)C(=O)N(C)C[C@H](OC)[C@@H](C)CN(C(=O)Cc1cccnc1)[C@@H](C)CO2	inactive	inactive	inactive
COc1ccc(S(=O)(=O)N(C)C[C@H]2Oc3c(NS(=O)(=O)c4ccc(F)cc4)cccc3C(=O)N([C@H](C)CO)C[C@H]2C)cc1	inactive	inactive	inactive
Cc1noc(C)c1S(=O)(=O)N(C)C[C@@H]1Oc2ccc(NC(=O)C3CC3)cc2CC(=O)N([C@@H](C)CO)C[C@H]1C	inactive	inactive	inactive
